Experimental data as given in PMC4242493.
The other results are listed elsewhere or left out. The list includes weakly bound sequences.

target: MaxL homodimer (UniProt P61244); experiment: universal protein-binding microarray (PBM); settings: PBS-based mixture, 10 nM His-tagged protein dimer, 2% milk, 200 ng/uL BSA, 50 ng/uL salmon testes DNA, 0.02% TX-100; detection with Alexa 488 anti-His …; high values mean tight binding; most listed sequences are background and not binding sites; double strand, one strand shown
UniProt P61244, sequence (P61244 whole entry): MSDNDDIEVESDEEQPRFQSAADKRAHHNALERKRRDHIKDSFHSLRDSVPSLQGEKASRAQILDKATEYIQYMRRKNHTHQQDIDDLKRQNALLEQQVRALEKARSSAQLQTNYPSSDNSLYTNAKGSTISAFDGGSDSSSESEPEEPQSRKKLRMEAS

Sequence | binding signal (normalized occupancy)
TATAGTCA | 0.0774
GAGCAATC | 0.0703
CGACGACC | 0.0732
GTCCTAAC | 0.0727
GGAGCGCA | 0.0679
AATAAAAC | 0.0798
AATTAGTG | 0.0813
ATACGTTC | 0.0794
AGGACGAC | 0.0761
ACTACCTC | 0.0755
GAGTAGTA | 0.0771
CCTATTTA | 0.0772
CTGATACC | 0.0855
ACACAGCC | 0.0758
CATTGTTA | 0.0806
AGGAGTAG | 0.0709
ACGGTCGA | 0.0702
AAGGTTAG | 0.0752
AATCAAGT | 0.0689
CATGATTC | 0.0938
AGTCGACC | 0.0697
GGTATGAA | 0.0841
GGCGGTGA | 0.0725
AAAGACTA | 0.0705
GTGCTGCA | 0.0891

Sequence | binding signal (normalized occupancy)
CGTCGCTA | 0.0683
ATTAAGCC | 0.0713
AGGTACAC | 0.0784
ATGCCAAA | 0.0777
AGTATTCC | 0.0798
CAAGATTA | 0.0746
TCACGAAA | 0.0755
GGAACGCA | 0.0749
GTACCGAA | 0.0718
AGGTTAGC | 0.0738
CGAATCAC | 0.0792
TAGAAGCA | 0.082
CTATCCAA | 0.0781
TGCACAAA | 0.0748
AACCGTGT | 0.0763
CAAGACCC | 0.0703
CGAGCCAG | 0.0662
AATGCGAA | 0.0737
CTAGCATC | 0.0748
CGCTTGCC | 0.0718
GTGACCCA | 0.0762
CCTCCTCA | 0.0764
GACATGCA | 0.0909
AGGCCATC | 0.0776
CGGCACGA | 0.0862

Sequence | binding signal (normalized occupancy)
CACTTAGC | 0.0722
CCAGCCCC | 0.0751
AACGACTG | 0.0722
TACCCAAA | 0.074
AACCCCTC | 0.0767
ACATGCTC | 0.106
ATTTCTTA | 0.0753
CGGGCATA | 0.0768
AAATTCTT | 0.0674
CTAGAAGC | 0.07
CGAGGTCC | 0.0694
GCGATTCA | 0.0717
AATCGATT | 0.0687
AAGTCACA | 0.0854
CAACCGAA | 0.0693
CATTTCAA | 0.0846
CGTCCGAA | 0.0722
CGAAGGAC | 0.0679
CTTGGTTC | 0.0717
TACTCCAA | 0.074
CGGCACCC | 0.0747
CCTCGAAA | 0.0699
CGCACCTA | 0.0751
AGGACTAT | 0.0778
CGTGATGA | 0.0882

Sequence | binding signal (normalized occupancy)
ATAGGGCA | 0.0795
CGACTGAC | 0.0719
GCGCTAAA | 0.0748
GATACCGC | 0.0772
AGATGAGC | 0.0754
CACTTAAG | 0.0753
CTTATCGC | 0.0737
ACAGGCTG | 0.0736
AGAAAGCT | 0.0689
CCCGTCTC | 0.0737
GTACCCGA | 0.074
ACCAGGGG | 0.0738
CGTTTATA | 0.08
GGACTGTA | 0.077
CCCCGATA | 0.0749
ATGTTTTC | 0.0835
CTTACCCC | 0.0826
CCGCCGTC | 0.0691
ACGCCAAC | 0.0724
ACGGGATG | 0.0782
ACATCATG | 0.0903
AGATAAGA | 0.0781
AGTAGAAC | 0.075
GCTGAGCA | 0.0743
GTTATAAC | 0.0842

Sequence | binding signal (normalized occupancy)
ATCGAGAT | 0.0791
AAAGGGCG | 0.0669
CGCAGGGC | 0.0662
GCAGGTAC | 0.0748
ATAGCTAG | 0.0778
GCCACCGA | 0.0708
GGGTGTTA | 0.0779
TCAGTCAA | 0.0745
AGAAGGGC | 0.0743
CCTCATTC | 0.0779
GACGGGGA | 0.0727
ACGGGCTC | 0.0639
CGCAAACG | 0.0728
GAGCAAAA | 0.0707
ACGCTATC | 0.0885
CGCTTAGC | 0.064
ACGCACAG | 0.076
AAATTTTG | 0.0722
ATGTGTGA | 0.102
TTTATAAA | 0.073
ATAGGGGC | 0.0792
AGCACTCC | 0.0771
AGACTCGG | 0.068
CCAAACCA | 0.0713
CTTGTGCC | 0.0778

Sequence | binding signal (normalized occupancy)
GGCCACTA | 0.0777
TCTGTTCA | 0.0799
AAGTCACC | 0.0767
CGACTATC | 0.077
ATCCAAAA | 0.074
CCTTCTGA | 0.0706
CCCTGCGC | 0.0693
AAACTCAT | 0.0797
CACGTGTC | 0.574
CATTGTAG | 0.0823
GCAATACA | 0.0803
ACCAGATG | 0.0885
ACCTGACC | 0.0857
AACAGGTC | 0.0733
ACAAGCCG | 0.0707
CTATTGAA | 0.0752
CCTCTCTC | 0.0759
TACACTCA | 0.0791
GTGCAGGA | 0.0768
CCGAATGC | 0.0707
CCTATTCG | 0.0736
CAGCGGGG | 0.0742
AACCGGAC | 0.0693
AGCGAGCG | 0.0699
CCAGAGGC | 0.0672

Sequence | binding signal (normalized occupancy)
GTACAAAC | 0.0733
ACACACTG | 0.0802
CCAGACAA | 0.0724
CGAAAATC | 0.0726
ACGTTCCA | 0.0802
CAGGGTAA | 0.0757
AGAACTCA | 0.071
CAGATCGA | 0.0712
GCTAACCA | 0.0769
AGTATAGA | 0.0782
AATGATAA | 0.0818
CGGGGCGA | 0.0669
GGCTTGCA | 0.071
CGAACAGC | 0.074
GGCCCATA | 0.0724
ACACACCT | 0.0881
TAACAACA | 0.0722
GTTATAAA | 0.0765
GAGTGACC | 0.0722
GGCTGAGA | 0.0684
AGGGACTC | 0.0701
AACAAGGG | 0.0725
CAGGTTGA | 0.0814
CGCATATA | 0.0794
GGAGAGAA | 0.0761

Sequence | binding signal (normalized occupancy)
AACTAGGC | 0.0709
CGCGTAAA | 0.0695
GCTACTAC | 0.0796
TGCCCACA | 0.0859
ACAGCTCG | 0.071
AGTAACGG | 0.0695
CAAATCAC | 0.0844
GCACCTAC | 0.0737
GATCGCAA | 0.0727
GGAAAACC | 0.0739
AGTTTCTC | 0.0717
ATGTGTCC | 0.0851
CGGGGCTA | 0.0717
GAAATCAC | 0.0765
ACCTGGGC | 0.0723
CCAGCACG | 0.0876
ATATCGAA | 0.0828
CCAAGGGC | 0.0653
GATTACGC | 0.0793
ACGTCGTA | 0.0858
CGCCATCC | 0.077
CTCTCTTA | 0.0759
ATCGGCGG | 0.0727
TGGCAAAA | 0.0788
ATTATGTA | 0.0828

Sequence | binding signal (normalized occupancy)
ATTGAGCC | 0.0717
ACTTTCCG | 0.0721
AATGCCCC | 0.0836
GAACAGAA | 0.0707
CACACGGA | 0.0847
CGTAGTAA | 0.0792
CACCTACC | 0.0736
CGTATGAC | 0.0817
CACGGCGG | 0.0746
ACTCGCAT | 0.0808
CGCTACTA | 0.073
GAGTACAC | 0.0778
GGCCGCAA | 0.0676
ACTCGGCC | 0.0694
GGTCGTAA | 0.0728
CGGACCAA | 0.0729
GCCGAGCC | 0.0652
CGTCGCGA | 0.07
CCGTGATC | 0.0778
CGAACGGC | 0.0661
AAGCGAAT | 0.0755
AGTCTACG | 0.0701
CTCACCAC | 0.0796
CGGGCCTC | 0.0653
GATTAGCC | 0.0764

Sequence | binding signal (normalized occupancy)
GCTTCACA | 0.073
ATCCTTGA | 0.073
GAGCAATA | 0.0784
ATCTCGCG | 0.0769
AGACCCCA | 0.0814
GGAGACAC | 0.0756
GCCGACTA | 0.0724
AGATCTCC | 0.0732
CTGCAAAA | 0.0704
GCAGGCAA | 0.0699
AACCGCAA | 0.07
AAGCAGGT | 0.0774
GCGGCGCA | 0.0702
ACAGGAGT | 0.0719
AAGCCTTA | 0.0724
ACACCAGC | 0.0755
ACTAGAGC | 0.0752
CTGCGAGC | 0.0694
TATATCAA | 0.0837
ATCGGTGA | 0.0706
ATTCAATC | 0.0766
ACGGCTGG | 0.0646
TTAAAGAA | 0.0733
GGGGTCAC | 0.0825
CATAACAC | 0.0892

Sequence | binding signal (normalized occupancy)
TCGAGACA | 0.0762
CCTCGTGA | 0.125
ACCAGTCT | 0.0692
GAGGGGTA | 0.0806
ACGTAGGC | 0.0765
CGTTACAA | 0.0789
AATCTGAG | 0.0765
AGAGCAAT | 0.0729
GGGTAAGA | 0.0831
GCGGATCA | 0.0718
ATAGTAAA | 0.077
AACCCCTT | 0.0746
ATTCCGAC | 0.0732
CCGATGGC | 0.0704
ACTTCCCG | 0.0729
CCCTAGTC | 0.0735
CACTCTAG | 0.0722
GATATGGC | 0.0846
AGGACTAA | 0.0762
CCTCCCCG | 0.0742
ATTCTATG | 0.0827
ACTCTAGA | 0.0718
GACGCGAA | 0.0735
ACCTCATC | 0.0736
CGCTACCC | 0.0767

Sequence | binding signal (normalized occupancy)
ATATCTGG | 0.0756
ATCTAAAG | 0.072
AGATGCCG | 0.0739
AGCCTAAC | 0.0739
ATAAAGGA | 0.0773
GCTAGTCA | 0.0705
CCCACAAG | 0.0792
CTACTTAC | 0.076
ACGGTTTA | 0.0718
ACCAATTG | 0.0745
AAGCACAG | 0.0699
ACGGGCGG | 0.0712
TACTGGGA | 0.072
AAAACGGT | 0.0756
GGTATCCA | 0.0807
CAAGAACG | 0.0695
GCAAACGA | 0.0725
TATTCACA | 0.0875
CATTAAGG | 0.0729
ATCCATGG | 0.0797
CTGTAATA | 0.0777
AGGCAAAG | 0.0688
CCTGGAAG | 0.076
GGAGTATA | 0.0799
AATATCGG | 0.0748

Sequence | binding signal (normalized occupancy)
AATAACAT | 0.0855
CGCGCTGA | 0.0747
CTTTAATC | 0.0742
AAACAATA | 0.0731
ACCACCGC | 0.0794
TGAGACCA | 0.0731
AACTCCCC | 0.0752
ATAAACGG | 0.0764
GTCTCGGA | 0.0672
ATGATCTC | 0.079
AAATTAGC | 0.0696
GACGTGGA | 0.087
AATGCGCA | 0.0804
AAGGGACT | 0.0718
CAAAGCGC | 0.0693
TATGGCAA | 0.0807
TGTCTAAA | 0.0764
CAACTATA | 0.0783
CCCTTTTA | 0.0719
ATGGTCCA | 0.0776
CGCCACTA | 0.0684
GCGTACTA | 0.0804
GTGGAGGA | 0.08
ACGACAGA | 0.0748
ACTTGCGG | 0.0726

Sequence | binding signal (normalized occupancy)
CTCGTCCC | 0.0705
CGATTCCA | 0.0708
ATCCACTC | 0.0804
AACCTCGT | 0.0822
CATCATTA | 0.0781
GGTTTCTA | 0.0759
AGGAATCA | 0.077
AACGTTAG | 0.0732
AACCGTTC | 0.0699
CGGATATA | 0.0807
CTTTGATC | 0.0743
CTGGCTAA | 0.0714
TAAGATCA | 0.0822
ATACCCAC | 0.0843
AGTACTGG | 0.0727
ACCTGAGA | 0.0771
GTAGAACA | 0.0767
AGTAGAAA | 0.0748
CTTGAAAA | 0.0707
